Experimental data reported in patent US20180008672A1, “ANTI-ACTIVIN A ANTIBODIES AND METHODS OF USE THEREOF FOR TREATING PULMONARY ARTERIAL HYPERTENSION” (Regeneron Pharmaceuticals, Inc., priority 2016, published 2018).

How the values were obtained:
[1] = tested on: long-term rat monocrotaline in vivo model; experiment: long-term rat monocrotaline model, survival; set-up: species or system rat (Sprague Dawley); conditions: monocrotaline 40 mg/kg SC day 0; therapy from two weeks post-monocrotaline for 5 weeks; antibodies 40 mg/kg SC 2x/wk, macitentan 30 mg/kg PO daily; n=10
Experimental: To evaluate the survival benefit of anti-Activin A antibody in a pulmonary arterial hypertension model, a long-term rat monocrotaline in vivo model was used.
Six-to-seven week old Sprague Dawley rats were used. Rats were separated into treatment groups such that body weights were similar among different groups. Rats were subcutaneously administered either 40 mg/kg of monocrotaline or 5 mL/kg of saline at day 0. At 14 days post-injection, saline-injected rats were subcutaneously treated with saline at 5 mL/kg, twice a week for 5 weeks, unless they died prematurely.
The monocrotaline-injected rats were separated into 4 groups. One group (n=10) was orally administered macitentan at 30 mg/kg daily. A second group (n=10) was subcutaneously administered saline at 5 mL/kg twice a week. A third group (n=10) was subcutaneously treated with either an isotype control antibody, H4H6334P. A fourth group (n=10) was subcutaneously treated with the anti-Activin A antibody, H4H10446P2, at 40 mg/kg twice a week. These monocrotaline-treated rats were started on therapy at two weeks post-monocrotaline and continued for 5 weeks, unless the animal died prematurely.
Animals were monitored twice a day for signs of morbidity or mortality. Based on literature searches, 5-8 weeks after monocrotaline injection is typically a time where morbidity and mortality are likely. […]

[2] = tested on: chronic hypoxia-induced pulmonary arterial hypertension mouse model; experiment: 4 week chronic hypoxia-induced pulmonary arterial hypertension mouse model; type: in vivo, mouse (Taconic C57BL/6); conditions: normobaric hypoxia 4 weeks, 25 mg/kg SC 2x/week starting day 14; for Stroke Volume (Mean ± SEM), right ventricular: calculated from PA CSA and VTI; for Stroke Volume (Mean ± SEM), right ventricular / Right Ventricular cardiac output (Mean ± SEM): 25 mg/kg; for Right Ventricular cardiac output (Mean ± SEM): product of SV and heart rate
Description: To evaluate the effect of anti-Activin A antibodies in pulmonary arterial hypertension, a 4 week chronic hypoxia-induced pulmonary arterial hypertension mouse model was used.
Eleven to fourteen week old Taconic C57BL/6 mice were used for the study. Mice were separated into treatment groups by weight such that starting body weights were similar among different groups. Cages were selected to either remain at ˜21% O2 (normobaric normoxia) or placed into 10% O2 (normobaric hypoxia) chamber (a modified 3′ Semi-Rigid Isolator unit, Charles River) that maintained low O2 levels with adjustment of N2 flow to a steady intake of room air.
As outlined in Table 3, mice were subcutaneously administered 25 mg/kg of REGN2477, (H4H10446P2), 25 mg/kg of an isotype control antibody, or 10 μL/kg of saline starting on day 14.
On the last day of each study, pulmonary artery size and right ventricular function and dimensions were assessed in each mouse using a high frequency ultrasound system (Vevo 2100, VisualSonics). For the assessment, mice were anesthetized (with 1.5% isoflurane at a rate of 1.0 cc/mL of medical grade air) and their temperature was monitored with a rectal temperature probe and held at approximately 37° C. with a heated platform (MouseMonitorS, Indus Instruments) and a warming lamp. Both brightness-mode (B-mode) and motion-mode (M-mode) imaging were used. B-mode imaging of the mouse heart in cross-section was used to determine pulmonary artery cross-sectional area (PA CSA) at the level of the pulmonary valve. […] was used to determine the pulsed wave velocity time integral (VTI), which is derived from the area under the curve of representative Doppler tracings of blood flow through the pulmonary artery. Right ventricular stroke volume (RV SV) was calculated from the product of PA CSA and VTI. Right ventricular cardiac output (RV CO) was calculated from the product of SV and heart rate (HR). M-mode imaging was used to determine right ventricular free wall (RVFW) thickness during diastole and systole. Animals were returned to their home cages before right ventricular pressure assessment.
Right ventricular pressure was subsequently assessed for all treatment groups. Mice were anesthetized with isoflurane and were kept at approximately 37° C. using a heated platform (Heated Hard Pad 1, Braintree Scientific) and circulating heated water pump (T/Pump Classic, Gaymar Industries). The neck area for each mouse was prepared for surgery by depilating over the right common Carotid artery and right Jugular vein. An incision was made and the right Jugular vein was isolated with care as to not damage the Carotid artery and/or the Vagus nerve. A piece of 5-0 silk suture was placed under the isolated Jugular vein to allow for retraction of the vessel cranially, then a 30-guage needle was used to introduce a hole into the Jugular vein. A pressure catheter (Micro-tip catheter transducer SPR-1000, Millar Instruments, Inc.) was inserted into the opening of the Jugular vein and advanced past the right atrium into the right ventricle. The catheter was connected to pressure/volume instrument (MPVS-300, Millar Instruments, Inc.) that measured heart rate as well as both diastolic and systolic right ventricular pressures. These parameters were digitally acquired using a data acquisition system (PowerLab 4/35, ADlnstruments). LabChart Pro 7.0 software (ADlnstruments) was used to analyze right ventricular pressures. Readings were quantified from a 60 second interval of the pressure tracing (following a 2 minute period of recording to allow for pressure stabilization). The parameters analyzed were right ventricular systolic pressures (RVSP), heart rate (HR) and rate of right ventricular pressure rise (dP/dt max).
Following completion of right ventricular pressure measurement, the catheter was removed and each animal was sacrificed. The abdomen was opened and blood was drawn from the Vena Cava for hematocrit assessment and serum collection. […]

[3] = tested on: rat model of pulmonary hypertension induced by monocrotaline; experiment: rat model of pulmonary hypertension induced by monocrotaline; type: in vivo, rat (Sprague Dawley)
Experimental: To further evaluate the effect of anti-Activin A antibodies in pulmonary arterial hypertension, a rat model of pulmonary hypertension induced by monocrotaline was used.
Six to seven week old Sprague Dawley rats were used. Rats were separated into treatment groups such that body weights were similar among different groups. Rats were subcutaneously administered either 40 mg/kg of monocrotaline or 5 mL/kg of saline at day 0. At 14 days post injection, saline-injected rats were orally dosed with PEG 400 (at 50:50 v/v, Affymetrix Inc., #19957) at 5 mL/kg daily for two weeks, and monocrotaline-injected rats were separated into 5 groups with a group (n=9) orally dosed with PEG 400 at 5 mL/kg daily for two weeks, another group (n=12) orally administered macintentan at 30 mg/kg daily for two weeks, and three groups that were both orally dosed with PEG 400 at 5 mL/kg daily for two weeks and subcutaneously treated with either anti-Activin A antibodies, H4H10430P (n=9), H4H10446P2 (n=11), or an isotype control antibody (n=10) at 40 mg/kg twice a week for two weeks.
At day 27, pulmonary artery size and right ventricular function and dimensions of the rats were assessed using a high frequency ultrasound system (Vevo 2100, VisualSonics). For the assessment, rats were anesthetized (with 1.5% isoflurane at a rate of 1.0 cc/mL of medical grade air) and their temperature was monitored with a rectal temperature probe and held at approximately 37° C. with a heated platform (Vevo 2100, Visualsonics) and a warming lamp. Both brightness-mode (B-mode) and motion-mode (M-mode) imaging were used. B-mode imaging of the rat heart in cross-section was used to determine pulmonary artery cross-sectional area (PA CSA) at the level of the pulmonary valve. […] was used to determine the pulsed wave velocity time integral (VTI), which is derived from the area under the curve of representative Doppler tracings of blood flow through the pulmonary artery. Right ventricular stroke volume (RV SV) was calculated from the product of PA CSA and VTI. Right ventricular cardiac output (RV CO) was calculated from the product of SV and heart rate (HR). M-mode imaging was used to determine right ventricular free wall (RVFW) thickness during diastole and systole. […]
Right ventricular pressure was subsequently assessed for all treatment groups. […] The catheter was connected to pressure/volume instrument (MPVS-300, Millar Instruments, Inc.) that measured heart rate as well as both diastolic and systolic right ventricular pressures. […] Readings were quantified from a 60 second interval of the pressure tracing (following a 2 minute period of recording to allow for pressure stabilization). The parameters analyzed were RV diastolic and systolic pressures, heart rate and ventricular contractile function. […]

[4] = monocrotaline 40 mg/kg SC day 0, antibodies 40 mg/kg SC 2x/wk, macitentan 30 mg/kg PO daily from day 14 for two weeks, ultrasound day 27

B1: Isotype control antibody: isotype control antibody; called H4H6334P in Example 4, REGN1945 in the footnote of Table 7 (antibody, V domains shown)
VH: EVQLVESGGGLVKPGGSLRLSCAVSGFTFSIDWMIWVRQAPGTGLEWVGRIKRKTDGGTTDYAAPVKGRFTISRDDSKNTLYLQMNSLKTEDTAIYYCATGGFERVGQGTLVTVSS
VL: [in this place about 100 residues]LTFGGGTKVEIK
For B1, the “mortality (animals that died during the study)” value [1] was 80%, the “PA CSA (Mean ± SEM)” value ([2]; B-mode ultrasound on last day) was 1.213 ± 0.039 mm^2 and the “Stroke Volume (Mean ± SEM), right ventricular” value [2] was 28.55 ± 2.14 µL. For the same molecule, the “Stroke Volume (Mean ± SEM), right ventricular” value ([2]; listed as isotype control) was 28.55 ± 2.14 µL, the “Hemocrit (Mean ± SEM)” value ([2]; end of study) was 50.5 ± 1.0 and the “Right Ventricular cardiac output (Mean ± SEM)” value [2] was 13.53 ± 0.84 mL/min. For the same molecule, the “Right Ventricular cardiac output (Mean ± SEM)” value ([2]; listed as isotype control antibody) was 13.53 ± 0.84 mL/min, the “Heart rate (Mean ± SEM)” value ([2]; ultrasound) was 481.7 ± 20.5 beats/min and the “PA CSA (Ave ± SEM)” value [3, 4] was 7.192 ± 0.453%% mm^2. The “Right Ventricular cardiac output (Ave ± SEM)” value [3, 4] was 98.9 ± 7.8 mL/min, the “Stroke Volume (Ave ± SEM), right ventricular” value [3, 4] was 274.0 ± 25.9 µL and the “effect on PA CSA (in words)” value ([3]; monocrotaline-injected rats, FIG. 3A) was “showed a similar response”.
